According to the supplement of paper PMC10126150:
Values marked as one replicate rest on one cluster of the flow cell; about a third of the high ones do not repeat.
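Also: ATP exposure 15 min at 22 °C before imaging.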

The sequences below were run on ATP (assay: switch fluorescence ratio, 500 uM ATP over buffer (Cy3 cluster intensity, sum of 5 cycles each) (fold (ratio)); higher = stronger signal-on switching upon ATP binding; sequences stand for … in TCGTCGGCAGCGTCAGATGTGTATAAGAGACAGTTTTTTTTTTTTTTTTTTTTTTTTT…TC). Conditions: aptamer strand: ATP DNA aptamer (quencher-CACCTGGGGGAGTATTGCGGAGGAAGG + anchor), 100 nM annealed; ATP concentration: 500 uM; one replicate.
Procedure, shortened: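 Values give the fluorescence ratio for each switch-domain sequence, averaged from per-cluster ratios of summed target-cycle to summed buffer-cycle Cy3 intensity. The Cy3-labelled switching-strand clusters sat on a modified Illumina MiSeq flow-cell, were annealed to 100 nM quencher-labelled ATP aptamer, and were imaged in selection buffer, then after 15 min with 500 uM ATP at 22 °C. Five cycles ran with NaOH stripping and re-annealing between them, and clusters outside 100-1000 RFU were excluded.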
CGATCAACAT showed a switch fluorescence ratio of 1.04. CGATCAACCG showed a switch fluorescence ratio of 1. Work on CGATCAATAG yielded a switch fluorescence ratio of 2.73. In the case of CGATCGACTG, the switch fluorescence ratio is reported as 0.989. In the case of CGATCGGCCG, the switch fluorescence ratio is reported as 0.98. In the case of CGATCTAACC, the switch fluorescence ratio is reported as 1.02. CGATCTAGCA was tested, and the switch fluorescence ratio was 0.982. For CGATCTCAC, the switch fluorescence ratio was 1.03. In the case of CGATCTCATA, the switch fluorescence ratio is reported as 0.98. In the case of CGATCTCGAG, the switch fluorescence ratio is reported as 1. CGATCTTGAT was tested, and the switch fluorescence ratio was 1.02. CGATGAAGGG showed a switch fluorescence ratio of 0.962. With CGATGACTCG the switch fluorescence ratio was 1.05. For CGATGAGATG, the switch fluorescence ratio was 0.985. In the case of CGATGAGGAA, the switch fluorescence ratio is reported as 0.99. With CGATGCAAGG the switch fluorescence ratio was 2.72. Sequence CGATGGTAGC has a switch fluorescence ratio of 1.03. CGATGTGTCA showed a switch fluorescence ratio of 0.944. With CGATTACCTG the switch fluorescence ratio was 0.994. With CGATTACGTC the switch fluorescence ratio was 1.04. In the case of CGATTAGATG, the switch fluorescence ratio is reported as 0.964. Sequence CGATTATGTC has a switch fluorescence ratio of 0.961. For CGATTCCGTG, the switch fluorescence ratio was 1.04. With CGATTCCTCC the switch fluorescence ratio was 2.38. In the case of CGATTCGGCA, the switch fluorescence ratio is reported as 0.991. CGATTCTAGT showed a switch fluorescence ratio of 0.969. For CGATTGCTAT, the switch fluorescence ratio was 1.23. CGATTGTAGA was tested, and the switch fluorescence ratio was 1.02. With CGATTGTAGG the switch fluorescence ratio was 1.04. Sequence CGATTGTG has a switch fluorescence ratio of 0.957. CGATTTGATT showed a switch fluorescence ratio of 1.01. CGATTTGTCC was tested, and the switch fluorescence ratio was 0.997. For CGATTTTGTC, the switch fluorescence ratio was 1.01. For CGATTTTTAA, the switch fluorescence ratio was 0.99. In the case of CGCAAACGGA, the switch fluorescence ratio is reported as 2.61. In the case of CGCAAACTTG, the switch fluorescence ratio is reported as 1.02. With CGCAAATTGC the switch fluorescence ratio was 2.15. CGCAAGTCCC was tested, and the switch fluorescence ratio was 4.47. CGCAATGAAG was tested, and the switch fluorescence ratio was 1.8. CGCACATAGT was tested, and the switch fluorescence ratio was 2.31. CGCACCAGCC gave a switch fluorescence ratio of 1.08. Sequence CGCACTGGAC has a switch fluorescence ratio of 2.17. Sequence CGCACTGGAG has a switch fluorescence ratio of 1.07. Sequence CGCAGAGTTC has a switch fluorescence ratio of 1.11. Sequence CGCAGCAGGA has a switch fluorescence ratio of 2.51. CGCAGCCAGA showed a switch fluorescence ratio of 1.29. CGCAGGCTTA was tested, and the switch fluorescence ratio was 1.1. For CGCAGTAGTC, the switch fluorescence ratio was 1.69. CGCAGTCCAG showed a switch fluorescence ratio of 1.22. Sequence CGCAGTCCGT has a switch fluorescence ratio of 1.06. Sequence CGCAGTTTCA has a switch fluorescence ratio of 1.02. CGCAGTTTTT showed a switch fluorescence ratio of 1.07. CGCATACGTA gave a switch fluorescence ratio of 1.34. Work on CGCATCAGGG yielded a switch fluorescence ratio of 1.22. Work on CGCATCCGTG yielded a switch fluorescence ratio of 1.04. Sequence CGCATCGCGA has a switch fluorescence ratio of 1.08. In the case of CGCATCGGGG, the switch fluorescence ratio is reported as 1.09. Sequence CGCATGCTTC has a switch fluorescence ratio of 1.69. For CGCATGGAT, the switch fluorescence ratio was 1.11. Sequence CGCCAACGCG has a switch fluorescence ratio of 1.02. For CGCCAATGTG, the switch fluorescence ratio was 1.07. Sequence CGCCACCGC has a switch fluorescence ratio of 1.14. CGCCACTGAC was tested, and the switch fluorescence ratio was 1.67. In the case of CGCCAGGGTT, the switch fluorescence ratio is reported as 1.29. For CGCCATGAAA, the switch fluorescence ratio was 1.16. In the case of CGCCATTATA, the switch fluorescence ratio is reported as 0.981. For CGCCCAGCTG, the switch fluorescence ratio was 1.7. In the case of CGCCCGCGTC, the switch fluorescence ratio is reported as 1.54. In the case of CGCCGCTATT, the switch fluorescence ratio is reported as 2.68. Sequence CGCCGGCCAC has a switch fluorescence ratio of 1.12. Work on CGCCTGCGCC yielded a switch fluorescence ratio of 1.06. CGCCTTGGTG gave a switch fluorescence ratio of 1.52. For CGCCTTTAGG, the switch fluorescence ratio was 1.04. For CGCGAAGAGT, the switch fluorescence ratio was 0.987. Work on CGCGACAGCA yielded a switch fluorescence ratio of 0.991. CGCGAGACTG was tested, and the switch fluorescence ratio was 2.67. With CGCGAGATGT the switch fluorescence ratio was 1.05. Work on CGCGAGGCTA yielded a switch fluorescence ratio of 1.28. CGCGATAAAT gave a switch fluorescence ratio of 1.01. With CGCGATAATA the switch fluorescence ratio was 1.14. CGCGCCTGGG was tested, and the switch fluorescence ratio was 1.08. CGCGCGAAAT showed a switch fluorescence ratio of 1.07. With CGCGGCCCGA the switch fluorescence ratio was 0.989. CGCGGCTACG showed a switch fluorescence ratio of 0.996. CGCGGGAGCG gave a switch fluorescence ratio of 0.994. Work on CGCGGGCGAG yielded a switch fluorescence ratio of 1.03. Sequence CGCGGGTTAC has a switch fluorescence ratio of 1.34. CGCGGTACCG gave a switch fluorescence ratio of 1.02. CGCGGTACCT gave a switch fluorescence ratio of 1.09. For CGCGTACCTT, the switch fluorescence ratio was 1.06. Work on CGCGTCGTCG yielded a switch fluorescence ratio of 1.01. In the case of CGCGTGCATC, the switch fluorescence ratio is reported as 1.02. Work on CGCGTTAATT yielded a switch fluorescence ratio of 0.98. Work on CGCTAGACGG yielded a switch fluorescence ratio of 1.22. CGCTAGGATC was tested, and the switch fluorescence ratio was 1.03. With CGCTAGTGTG the switch fluorescence ratio was 1.02. In the case of CGCTATAATT, the switch fluorescence ratio is reported as 1.14. In the case of CGCTCAGATA, the switch fluorescence ratio is reported as 1.02. For CGCTCATGCA, the switch fluorescence ratio was 1. CGCTCATTGT showed a switch fluorescence ratio of 1.03. CGCTCCATCG showed a switch fluorescence ratio of 1.06. CGCTCGATAA gave a switch fluorescence ratio of 1.07. For CGCTCGCTA, the switch fluorescence ratio was 1.8. CGCTCGTTA showed a switch fluorescence ratio of 0.996. Sequence CGCTCTAAGG has a switch fluorescence ratio of 1.05. CGCTGAATGG showed a switch fluorescence ratio of 1.08. CGCTGATAAA gave a switch fluorescence ratio of 1.01. CGCTGCAGCC showed a switch fluorescence ratio of 1.03. CGCTGCATGA gave a switch fluorescence ratio of 1.24. For CGCTGTATAA, the switch fluorescence ratio was 1.07. Sequence CGCTTATAGC has a switch fluorescence ratio of 1.11. In the case of CGCTTATGTT, the switch fluorescence ratio is reported as 1.04. CGCTTCATGT was tested, and the switch fluorescence ratio was 1.05. Sequence CGCTTCTTTG has a switch fluorescence ratio of 1.02. In the case of CGGAAAGAGT, the switch fluorescence ratio is reported as 1.02. In the case of CGGAAATT, the switch fluorescence ratio is reported as 1. For CGGAACCAG, the switch fluorescence ratio was 1.05. Sequence CGGAAGACAA has a switch fluorescence ratio of 1.16. CGGAAGTAAC was tested, and the switch fluorescence ratio was 1.17. Sequence CGGAATCGGG has a switch fluorescence ratio of 1.04. Work on CGGAATCTTC yielded a switch fluorescence ratio of 1.21. With CGGAATGAAT the switch fluorescence ratio was 1.02. CGGAATGCT was tested, and the switch fluorescence ratio was 2.47. CGGAATTGCG gave a switch fluorescence ratio of 1.03. Work on CGGACACGCG yielded a switch fluorescence ratio of 1.03. CGGACAGGTG was tested, and the switch fluorescence ratio was 1.64. CGGACCAACA was tested, and the switch fluorescence ratio was 1.25. For CGGACCGAAC, the switch fluorescence ratio was 1.01. For CGGACGTTGA, the switch fluorescence ratio was 1.11. CGGAGAGACT gave a switch fluorescence ratio of 1.01. Sequence CGGAGCAGAT has a switch fluorescence ratio of 7.18. CGGAGCCAGC gave a switch fluorescence ratio of 1.77. CGGAGCCTAA showed a switch fluorescence ratio of 1.24. CGGAGGTCCG showed a switch fluorescence ratio of 1.06. CGGATCCGGG was tested, and the switch fluorescence ratio was 1.04. CGGATCCTTG showed a switch fluorescence ratio of 0.979. In the case of CGGATCTTAG, the switch fluorescence ratio is reported as 0.981. Work on CGGATGCAT yielded a switch fluorescence ratio of 0.969. In the case of CGGATGGACC, the switch fluorescence ratio is reported as 0.94. Sequence CGGATGGAT has a switch fluorescence ratio of 1.01. Sequence CGGATGGGTA has a switch fluorescence ratio of 1.01. With CGGATTATAA the switch fluorescence ratio was 1.11. For CGGATTCA, the switch fluorescence ratio was 1.06. For CGGCAAATCA, the switch fluorescence ratio was 1.06. Sequence CGGCACCGGC has a switch fluorescence ratio of 1.11. In the case of CGGCAGATAG, the switch fluorescence ratio is reported as 1.16. In the case of CGGCAGGTCC, the switch fluorescence ratio is reported as 1. In the case of CGGCATAAGA, the switch fluorescence ratio is reported as 1.07. CGGCATGACT gave a switch fluorescence ratio of 1.06. For CGGCATTCCG, the switch fluorescence ratio was 0.965. Work on CGGCCACAGG yielded a switch fluorescence ratio of 1.3. With CGGCCACTTC the switch fluorescence ratio was 0.977. CGGCCCCGTA was tested, and the switch fluorescence ratio was 1.07.
